A collection of fitness landscapes (doi:10.1126/science.1257360)
This is one part of the list.

B1: PhoQ; a variant is named by its letters at X, in order, P23837 (parent)
chain: MKKLLRLFFPLSLRVRFLLATAAVVLVLSLAYGMVALIGYSVSFDKTTFRLLRGESNLFYTLAKWENNKLHVELPENIDKQSPTMTLIYDENGQLLWAQRDVPWLMKMIQPDWLKSNGFHEIEADVNDTSLLLSGDHSIQQQLQEVREDDDDAEMTHSVAVNVYPATSRMPKLTIVVVDTIPVELKSSYMVWSWFIYVLSANLLLVIPLLWVAAWWSLRPIEALAKEVRELEEHNRELLNPATTRELTSLVRNLNRLLKSERERYDKYRTTLTDLTHSLKTPLXXLQXXLRSLRSEKMSVSDAEPVMLEQISRISQQIGYYLHRASMRGGTLLSRELHPVAPLLDNLTSALNKVYQRKGVNISLDISPEISFVGEQNDFVEVMGNVLDNACKYCLEFVEISARQTDEHLYIVVEDDGPGIPLSKREVIFDRGQRVDTLRPGQGVGLAVAREITEQYEGKIVAGESMLGGARMEVIFGRQHSAPKDE

Variants of: B1
Assay: enrichment ratio after two sorts for PhoP signalling (ratio (wild type AVST 3.29)); higher = more functional
Conditions: with PhoP (E. coli)
For PFCK, the enrichment ratio was ≤ 0.25. For AFRW, the enrichment ratio was ≤ 0.25. With EPPE the enrichment ratio was ≤ 0.25. In the case of LIRM, the enrichment ratio is reported as ≤ 0.25. In the case of PEDG, the enrichment ratio is reported as ≤ 0.25. In the case of KLSY, the enrichment ratio is reported as ≤ 0.25. In the case of RCAR, the enrichment ratio is reported as ≤ 0.25. LFFI was tested, and the enrichment ratio was ≤ 0.25. With FSAQ the enrichment ratio was ≤ 0.25. For PWND, the enrichment ratio was ≤ 0.25. TSCN was tested, and the enrichment ratio was 26.6. With FMLN the enrichment ratio was ≤ 0.25. In the case of NFFE, the enrichment ratio is reported as ≤ 0.25. In the case of HHMH, the enrichment ratio is reported as ≤ 0.25. EVRT was tested, and the enrichment ratio was ≤ 0.25. With WCWW the enrichment ratio was ≤ 0.25. For AVVR, the enrichment ratio was 3.58. FTAV was tested, and the enrichment ratio was ≤ 0.25. In the case of EHWP, the enrichment ratio is reported as ≤ 0.25. In the case of KTAH, the enrichment ratio is reported as ≤ 0.25. DGYA was tested, and the enrichment ratio was ≤ 0.25. DPMY was tested, and the enrichment ratio was ≤ 0.25. Work on SESI yielded an enrichment ratio of 12.7. In the case of LLAI, the enrichment ratio is reported as ≤ 0.25. With NCSR the enrichment ratio was ≤ 0.25. With WNIW the enrichment ratio was ≤ 0.25. For HWVA, the enrichment ratio was ≤ 0.25. In the case of VYVE, the enrichment ratio is reported as ≤ 0.25. For MYGA, the enrichment ratio was ≤ 0.25. In the case of PDFH, the enrichment ratio is reported as ≤ 0.25. PGGS was tested, and the enrichment ratio was 1.11. SAWK was tested, and the enrichment ratio was ≤ 0.25. DRPT was tested, and the enrichment ratio was ≤ 0.25. With DGRV the enrichment ratio was ≤ 0.25. In the case of FWLH, the enrichment ratio is reported as ≤ 0.25. With KAVC the enrichment ratio was ≤ 0.25. In the case of YLFS, the enrichment ratio is reported as ≤ 0.25. DCNQ was tested, and the enrichment ratio was ≤ 0.25. With FLMT the enrichment ratio was ≤ 0.25. In the case of VPLN, the enrichment ratio is reported as ≤ 0.25. In the case of MQCP, the enrichment ratio is reported as ≤ 0.25. MAPE was tested, and the enrichment ratio was ≤ 0.25. With NCAF the enrichment ratio was ≤ 0.25. With HCRM the enrichment ratio was ≤ 0.25. For VWQT, the enrichment ratio was ≤ 0.25. For ESAE, the enrichment ratio was ≤ 0.25. IHCW was tested, and the enrichment ratio was ≤ 0.25. In the case of GIDH, the enrichment ratio is reported as ≤ 0.25. With DDNM the enrichment ratio was ≤ 0.25. For VNGA, the enrichment ratio was ≤ 0.25. With STFY the enrichment ratio was ≤ 0.25. With NRDC the enrichment ratio was ≤ 0.25. YFNP was tested, and the enrichment ratio was ≤ 0.25. With NMHS the enrichment ratio was ≤ 0.25. With KRMC the enrichment ratio was ≤ 0.25. In the case of ENWS, the enrichment ratio is reported as ≤ 0.25. With MWPH the enrichment ratio was ≤ 0.25. For MEMA, the enrichment ratio was ≤ 0.25. With YDVM the enrichment ratio was ≤ 0.25. For YQCH, the enrichment ratio was ≤ 0.25. In the case of HHSM, the enrichment ratio is reported as ≤ 0.25. With YDFE the enrichment ratio was ≤ 0.25. In the case of SQPQ, the enrichment ratio is reported as ≤ 0.25. In the case of METD, the enrichment ratio is reported as ≤ 0.25. QSVW was tested, and the enrichment ratio was ≤ 0.25. With DHGE the enrichment ratio was ≤ 0.25. For PFDH, the enrichment ratio was ≤ 0.25. MVHW was tested, and the enrichment ratio was ≤ 0.25. In the case of LKLL, the enrichment ratio is reported as ≤ 0.25. EACV was tested, and the enrichment ratio was ≤ 0.25. NAAG was tested, and the enrichment ratio was ≤ 0.25. With LNWH the enrichment ratio was ≤ 0.25. PMDV was tested, and the enrichment ratio was ≤ 0.25. For LWSP, the enrichment ratio was ≤ 0.25. In the case of GIPC, the enrichment ratio is reported as ≤ 0.25. NAFA was tested, and the enrichment ratio was ≤ 0.25. In the case of FADK, the enrichment ratio is reported as ≤ 0.25. KYYY was tested, and the enrichment ratio was ≤ 0.25. For QGYF, the enrichment ratio was 1.19. YHVH was tested, and the enrichment ratio was ≤ 0.25. In the case of RMFV, the enrichment ratio is reported as ≤ 0.25. With ISIS the enrichment ratio was ≤ 0.25. For MDEF, the enrichment ratio was ≤ 0.25. In the case of VAVF, the enrichment ratio is reported as ≤ 0.25. With VNNR the enrichment ratio was ≤ 0.25. FETV showed an enrichment ratio of 4.06. With VKVK the enrichment ratio was ≤ 0.25. In the case of GRGQ, the enrichment ratio is reported as ≤ 0.25. In the case of REYH, the enrichment ratio is reported as ≤ 0.25. For FCYI, the enrichment ratio was ≤ 0.25. In the case of NDLH, the enrichment ratio is reported as ≤ 0.25. In the case of WMSR, the enrichment ratio is reported as ≤ 0.25. In the case of GMDN, the enrichment ratio is reported as ≤ 0.25. In the case of MWFT, the enrichment ratio is reported as ≤ 0.25. GAIK was tested, and the enrichment ratio was ≤ 0.25. For MHSG, the enrichment ratio was ≤ 0.25. With YAPP the enrichment ratio was ≤ 0.25. For EQTI, the enrichment ratio was ≤ 0.25. LADD was tested, and the enrichment ratio was ≤ 0.25. For QIAN, the enrichment ratio was ≤ 0.25. For KPMD, the enrichment ratio was ≤ 0.25. With KDES the enrichment ratio was ≤ 0.25. For QHIQ, the enrichment ratio was ≤ 0.25. YGGN was tested, and the enrichment ratio was ≤ 0.25. With HYQA the enrichment ratio was ≤ 0.25. With QYNC the enrichment ratio was ≤ 0.25. In the case of QQAR, the enrichment ratio is reported as ≤ 0.25. In the case of KRKS, the enrichment ratio is reported as ≤ 0.25. GSYA was tested, and the enrichment ratio was ≤ 0.25. With NQIH the enrichment ratio was ≤ 0.25. With KNVA the enrichment ratio was ≤ 0.25. In the case of PFLI, the enrichment ratio is reported as ≤ 0.25. ATMA gave an enrichment ratio of 1.82. With RNDR the enrichment ratio was ≤ 0.25. For TGNP, the enrichment ratio was ≤ 0.25. For QRCL, the enrichment ratio was ≤ 0.25. For GAVL, the enrichment ratio was ≤ 0.25. In the case of HQHS, the enrichment ratio is reported as ≤ 0.25. For DRPL, the enrichment ratio was ≤ 0.25. For NKSQ, the enrichment ratio was ≤ 0.25. In the case of HAFE, the enrichment ratio is reported as ≤ 0.25. For VKYQ, the enrichment ratio was ≤ 0.25. For NMLP, the enrichment ratio was ≤ 0.25. LHIA was tested, and the enrichment ratio was ≤ 0.25. VYTK was tested, and the enrichment ratio was ≤ 0.25. With GHCL the enrichment ratio was ≤ 0.25. For PKCW, the enrichment ratio was ≤ 0.25. With MVWE the enrichment ratio was ≤ 0.25. QEYP was tested, and the enrichment ratio was ≤ 0.25. For TILR, the enrichment ratio was ≤ 0.25. For YGMN, the enrichment ratio was ≤ 0.25. In the case of DHAC, the enrichment ratio is reported as ≤ 0.25. With KYQI the enrichment ratio was ≤ 0.25. For YRWY, the enrichment ratio was ≤ 0.25. With ITSW the enrichment ratio was ≤ 0.25. For DPYF, the enrichment ratio was ≤ 0.25. In the case of GYQP, the enrichment ratio is reported as ≤ 0.25. LAYF was tested, and the enrichment ratio was 1.23. For FHKY, the enrichment ratio was ≤ 0.25. For QKII, the enrichment ratio was ≤ 0.25. In the case of YEWR, the enrichment ratio is reported as ≤ 0.25. KIIV was tested, and the enrichment ratio was ≤ 0.25. EHCK was tested, and the enrichment ratio was ≤ 0.25. For EYYT, the enrichment ratio was ≤ 0.25. With PRRR the enrichment ratio was ≤ 0.25. YCFT was tested, and the enrichment ratio was ≤ 0.25. With WGSR the enrichment ratio was ≤ 0.25. With LICP the enrichment ratio was ≤ 0.25. For GLRR, the enrichment ratio was ≤ 0.25. For ISAG, the enrichment ratio was ≤ 0.25. For NFID, the enrichment ratio was ≤ 0.25. For ISVE, the enrichment ratio was ≤ 0.25. For TTKW, the enrichment ratio was ≤ 0.25.
